Assay results taken from PubChem BioAssay AID1768 (National Center for Advancing Translational Sciences (NCATS), 2009).
Among all 270,000 compounds or so, about 620 (0.23%) were called active. Inconclusive means that the source gave no clear call. Such entries were picked first, then a sample of the others. Calls follow the shape of the dose curve; as a rule, active = well fitted inhibition curve with a large enough effect in the polarisation, with a control signal flat (not every such curve was filed as active); inconclusive = small, poorly fitted or top-dose-only effect, or effect the other way, or a change in a side signal; inactive = no such curve, though single readings can be large or run the other way; the % refers to the polarisation. Potencies beside an inconclusive call are fits to weak or partial responses and may not hold up. “Side channel” marks fits to a control or component signal instead of the main read-out.

Target: Menin (Homo sapiens) (UniProt O00255)
Assay: qHTS Assay for Inhibitors Targeting the Menin-MLL Interaction in MLL Related Leukemias: Competition With Texas Red Labeled MLL-derived Mutant Peptide
Settings: fluorescence polarization; series mostly up to 61.6 µM
Potency is read from the fitted curve at half-maximal effect; tags tell the direction and shape of the fitted curve or compound fluorescence and quenching.

Sequence of UniProt O00255 (O00255 whole entry, looked up): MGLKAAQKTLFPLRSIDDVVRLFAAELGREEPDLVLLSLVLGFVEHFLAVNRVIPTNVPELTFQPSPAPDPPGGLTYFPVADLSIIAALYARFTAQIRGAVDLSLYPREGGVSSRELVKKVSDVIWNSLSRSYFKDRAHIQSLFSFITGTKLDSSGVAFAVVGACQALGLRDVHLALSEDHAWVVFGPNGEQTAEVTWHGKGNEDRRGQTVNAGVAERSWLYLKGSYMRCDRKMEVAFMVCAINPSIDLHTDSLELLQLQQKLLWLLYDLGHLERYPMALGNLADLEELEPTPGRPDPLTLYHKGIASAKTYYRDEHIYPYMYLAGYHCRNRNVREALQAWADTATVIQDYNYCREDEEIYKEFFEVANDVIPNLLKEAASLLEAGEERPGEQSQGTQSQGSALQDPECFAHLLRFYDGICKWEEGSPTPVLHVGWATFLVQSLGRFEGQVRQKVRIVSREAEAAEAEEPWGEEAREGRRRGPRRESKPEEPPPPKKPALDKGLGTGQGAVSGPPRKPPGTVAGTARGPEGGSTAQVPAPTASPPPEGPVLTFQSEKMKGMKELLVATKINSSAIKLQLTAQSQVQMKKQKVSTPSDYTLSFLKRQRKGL

Compound	Potency
O=[N+]([O-])c1cc(S(=O)(=O)Nc2ccccc2)ccc1N1CCN(c2ccccc2)CC1	inconclusive: 12.6 µM [quencher, side channel, partial curve]
COc1ccc(CCNC(=O)c2ccc3c(c2)NC(=O)CS3)cc1OC	inconclusive: 28.2 µM [inhibitor, single point]
O=C(O)c1cc(S(=O)(=O)Nc2ccc(OCc3ccccc3)cc2)ccc1Br	inconclusive: 25.1 µM [quencher, side channel, single point]
S=c1[nH]cnc2sc(Nc3ccccc3)nc12	inconclusive: 22.4 µM [quencher, side channel, partial curve]
O=c1cc(CN2CCN(c3ccccc3O)CC2)nc2sccn12	inactive
O=C(Nc1ccc(Cl)cc1)Nc1ccccc1NS(=O)(=O)c1cccs1	inconclusive: 3.16 µM [quencher, side channel, full curve]
CC1CCN(C(=O)CSc2nnc(-c3ccncc3)n2C)CC1	inconclusive: 10 µM [inhibitor, partial curve, poor fit]
CC1CN(S(=O)(=O)c2ccc(CN3C(=O)c4cccnc4C3=O)cc2)c2ccccc2O1 (stereo not given)	inconclusive: 12.6 µM [quencher, side channel, partial curve]
CCCC(=O)Nc1cccc2c1CCCC2	inconclusive: 2.82 µM [inhibitor, partial curve]
O=C(Cc1ccc(Cl)cc1)N/N=C/c1c(Cl)cccc1Cl	inconclusive: 39.8 µM [inhibitor, single point]
CCCCCCCC(=O)NNC(=O)Cc1ccccc1	inconclusive: 35.5 µM [fluorescent, side channel, single point]
COc1ccc2[nH]c(C)c(-c3csc(N)n3)c2c1	inconclusive: 12.6 µM [quencher, side channel, partial curve]
COC(=O)c1cc(S(=O)(=O)N2CCN(c3ccc([N+](=O)[O-])cc3)CC2)c[nH]1	inconclusive: 14.1 µM [quencher, side channel, single point]
C#CCn1cnc2c(cnn2-c2ccc(C)c(C)c2)c1=O	inconclusive: 22.4 µM [fluorescent, side channel, partial curve]
CCCc1nc2ccccc2c(NC(=O)CN(CC)CC)c1CC	inconclusive: 7.94 µM [inhibitor, partial curve]
CCCCN1/C(=C/c2ccc3ccccc3[n+]2CC)Sc2ccccc21	inconclusive: 12.6 µM [fluorescent, side channel, partial curve]
Cc1nnc(NC(=O)CCC(=O)NCc2cccs2)s1	inconclusive: 0.316 µM [inhibitor, full curve, poor fit]
CCCn1c(=O)c(C(=O)NCc2cccnc2)c(O)c2ccccc21	inconclusive: 8.91 µM [fluorescent, side channel, partial curve]
CCCCCOc1ccc(/C(C)=N/NC2=NCCN2)cc1	inconclusive: 22.4 µM [fluorescent, side channel, partial curve]
CC(OC(=O)c1ccncc1)C(=O)Nc1cc(S(=O)(=O)N2CCCCC2)ccc1Cl (stereo not given)	inconclusive: 0.631 µM [inhibitor, full curve, poor fit]
NC(=O)c1nn(-c2ccccc2)nc1N	inconclusive: 28.2 µM [fluorescent, side channel, single point]
Cn1c2ccccc2c2c(C(=O)N3CCN(C(=O)c4ccco4)CC3)cn(C3CCCCC3)c(=O)c21	inconclusive: 3.16 µM [fluorescent, side channel, full curve, poor fit]
Cc1ccc(-n2nc(-c3ccccc3)cc2Nc2ccccc2N)cc1	inconclusive: 25.1 µM [quencher, side channel, partial curve]
COc1ccc(NC(=O)C2=CC(c3ccco3)=NS(=O)(=O)N2C)cc1	inconclusive: 44.7 µM [inhibitor, partial curve, poor fit]
N#Cc1nc(-c2ccc(OCc3ccccc3)cc2)oc1NCc1ccco1	inconclusive: 12.6 µM [quencher, side channel, partial curve]
O=C(Nc1cc(Cl)ccc1O)c1cc(-c2ccco2)on1	inconclusive: 31.6 µM [inhibitor, single point]
Cc1ccc(NC(=O)CSc2nc(NS(=O)(=O)c3ccc(C)cc3)cc(=O)[nH]2)cc1	inconclusive: 35.5 µM [inhibitor, single point]
C=CCNC(=O)c1c[nH]c2ccc(S(=O)(=O)N(C)c3ccc(OCC)cc3)cc2c1=O	inconclusive: 25.1 µM [quencher, side channel, single point]

Compound	Potency
O=[N+]([O-])c1cc([N+](=O)[O-])c(Oc2cccc(Cl)c2Cl)cc1NN1CCCCC1	inconclusive: 17.8 µM [quencher, side channel, partial curve]
CC1(C)C2CCC1(CS(=O)(=O)N1CCN(c3ccccc3F)CC1)C(=O)C2 (stereo not given)	inconclusive: 3.16 µM [inhibitor, partial curve]
CC1CCc2sc(-c3n[nH]c(=S)o3)cc2C1 (stereo not given)	inconclusive: 31.6 µM [quencher, side channel, single point]
Cc1sc(NC(=O)c2ccco2)c(C(c2cccnc2)N2CCN(CCO)CC2)c1C (stereo not given)	inactive
Cc1ccc(C(=O)COC(=O)CNC(=O)c2ccc(N3C(=O)c4ccccc4C3=O)cc2)cc1C	inconclusive: 14.1 µM [inhibitor, single point]
Oc1ccc(C2Nc3cccc4cccc(c34)N2)c(O)c1	inconclusive: 7.94 µM [quencher, side channel, partial curve]
CO[C@H]1C=CO[C@@]2(C)Oc3c(C)c(O)c4c(O)c(c5c(nc6cc(C)ccn65)c4c3C2=O)NC(=O)C(C)=CC=C[C@H](C)[C@H](O)[C@@H](C)[C@@H](O)[C@@H](C)[C@H](OC(C)=O)[C@@H]1C	inactive
Cc1[nH]c2ccccc2c1/C=C/c1nc2ccccc2c(=O)n1-c1ccc([N+](=O)[O-])cc1	inconclusive: 10 µM [quencher, partial curve]
COC(=O)c1[nH]c2ccc(F)cc2c1NS(=O)(=O)c1ccc(OC)cc1	inconclusive: 39.8 µM [quencher, side channel, single point]
CCN(CC)C(=O)CC1(c2ccccc2OC)CCOC(C(C)C)C1 (stereo not given)	inconclusive: 17.8 µM [fluorescent, side channel, partial curve]
COC(=O)c1cc(S(=O)(=O)N2CCOCC2)ccc1Sc1ccccc1N	inactive
CNC(=O)/C(C#N)=C/c1c(N2CC(C)OC(C)C2)nc2ccccn2c1=O (stereo not given)	inactive
CCN(CC)c1ccc(-n2cc3c(=O)n(C)c(=O)n(C)c3c2)cc1	inactive
COc1ccc(CNn2c(-c3cccc(C)c3)nc3ccccc3c2=O)cc1OC	inconclusive: 25.1 µM [fluorescent, side channel, partial curve]
CCc1ccc(C(=O)Cc2cc3cccc(OC)c3oc2=O)cc1	inconclusive: 31.6 µM [fluorescent, side channel, single point]
O=C(O)CCn1cc(/C=C2\NC(=S)N(c3ccccc3)C2=O)c(-c2ccc(Br)cc2)n1	inconclusive: 28.2 µM [quencher, side channel, single point]
O=C(Nc1cccc(Cl)c1)Nc1ccc2c(c1)OCO2	inconclusive: 25.1 µM [quencher, side channel, partial curve]
O=C(O)c1ccc(COc2ccccc2C=C2C(=O)c3ccccc3C2=O)cc1	inactive
C=CCOc1c(Br)cc(/C=C2\SC(=Nc3ccccc3)NC2=O)cc1OC	inconclusive: 3.16 µM [quencher, side channel, full curve]
COc1ccc(-n2c(C)cc(/C=C3\C(=O)NN(c4ccccc4)C3=O)c2C)cc1	inconclusive: 14.1 µM [quencher, side channel, partial curve]
CCCCC(CC)CNCc1cccn1CCN1CCOCC1 (stereo not given)	inconclusive: 22.4 µM [fluorescent, side channel, partial curve]
CC(C)CC(NC(=O)OC(C)(C)C)c1cn([C@@H](Cc2ccc(O)cc2)C(=O)N2CCN(C(=O)OC(C)(C)C)CC2)nn1 (stereo not given in full)	inconclusive: 6.31 µM [fluorescent, side channel, partial curve]
COc1ccc(NC(=O)Cn2ncc(Cl)c(Cl)c2=O)cc1S(=O)(=O)N1CCOCC1	inconclusive: 25.1 µM [quencher, side channel, single point]
Cc1ccc(/C([O-])=C(/C(=S)Nc2ccc(SC(F)F)cc2)[n+]2ccccc2)cc1[N+](=O)[O-]	inconclusive: 39.8 µM [quencher, side channel, single point]
CS(=O)(=O)n1nc(-c2ccc(Cl)cc2)nc1SCc1ccccc1	inconclusive: 28.2 µM [quencher, side channel, single point]
O=[N+]([O-])c1ccc2ncnc(Nc3ccc4c(c3)OCCO4)c2c1	inconclusive: 31.6 µM [quencher, side channel, single point]
CCc1ccc(NC(=O)N(CCCN2CCOCC2)C(C)c2cc3cccc(OC)c3o2)cc1 (stereo not given)	inconclusive: 35.5 µM [fluorescent, side channel, single point]
